Laboratory results taken from the supplement of paper PMC3334620.
Whole data set: some 33,000 sequences, median “E-score (-0.5 to 0.5)” near -0.043, cut for the highest 2% near 0.37. Some of the results follow.

The sequences below were run against T1, Upc2 (UniProt Q12151) (assay: PBM E-score (8-mer binding enrichment) (E-score (-0.5 to 0.5)); higher = stronger / more preferred TF binding; most listed sequences are background and not binding sites). Details: protein concentration: 200 nM; construct: GST-full length.
T1 sequence: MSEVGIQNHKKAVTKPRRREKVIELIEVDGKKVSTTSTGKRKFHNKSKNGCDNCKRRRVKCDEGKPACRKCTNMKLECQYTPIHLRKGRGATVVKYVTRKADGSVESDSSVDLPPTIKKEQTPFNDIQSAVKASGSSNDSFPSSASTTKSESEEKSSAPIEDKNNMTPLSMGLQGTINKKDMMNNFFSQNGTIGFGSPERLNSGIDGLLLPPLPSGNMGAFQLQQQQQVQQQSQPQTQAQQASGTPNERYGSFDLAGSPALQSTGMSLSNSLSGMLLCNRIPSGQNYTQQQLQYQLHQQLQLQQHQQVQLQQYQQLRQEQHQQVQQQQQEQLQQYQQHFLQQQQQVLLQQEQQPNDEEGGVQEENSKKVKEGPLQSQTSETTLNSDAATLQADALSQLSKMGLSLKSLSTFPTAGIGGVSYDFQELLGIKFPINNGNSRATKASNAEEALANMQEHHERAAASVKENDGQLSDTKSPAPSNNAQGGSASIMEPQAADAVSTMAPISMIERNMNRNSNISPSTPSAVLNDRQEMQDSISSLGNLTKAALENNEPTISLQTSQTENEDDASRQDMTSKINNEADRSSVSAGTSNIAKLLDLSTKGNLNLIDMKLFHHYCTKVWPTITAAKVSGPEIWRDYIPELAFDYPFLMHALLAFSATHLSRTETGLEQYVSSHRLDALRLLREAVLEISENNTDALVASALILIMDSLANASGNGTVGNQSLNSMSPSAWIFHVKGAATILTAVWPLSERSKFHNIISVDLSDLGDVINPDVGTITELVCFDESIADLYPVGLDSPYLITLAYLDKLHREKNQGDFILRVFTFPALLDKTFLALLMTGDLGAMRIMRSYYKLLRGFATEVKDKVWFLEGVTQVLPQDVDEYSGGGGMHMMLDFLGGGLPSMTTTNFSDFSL
In short: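 Detection of bound protein used fluorescent anti-GST, with scans normalised by masliner. The proteins were GST-tagged yeast transcription factors applied at about 100-200 nM to universal all-10-mer Agilent arrays made double-stranded by primer extension. Each ungapped eight-base word, pooled with its reverse complement, was scored with an E-score from the Universal PBM Analysis Suite.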
For CCCGGGGC, the “PBM E-score” value was -0.0224. In the case of ATGTACAC, the “PBM E-score” value is reported as -0.0421. In the case of GAACCATC, the “PBM E-score” value is reported as 0.0879. CACGCGGA was tested, and the “PBM E-score” value was -0.0824. CCCTGACG was tested, and the “PBM E-score” value was -0.32. For ATGCTAAT, the “PBM E-score” value was -0.00717. For CATTAAAA, the “PBM E-score” value was 0.011. For CGTGATGA, the “PBM E-score” value was -0.0973. GAGCTTAC was tested, and the “PBM E-score” value was 0.0339. GGAGGCCC was tested, and the “PBM E-score” value was -0.179. CGCCGGGC was tested, and the “PBM E-score” value was -0.111. With AAGTCGCT the “PBM E-score” value was 0.0332. For CGGCTCAA, the “PBM E-score” value was -0.134. In the case of TCACCTCA, the “PBM E-score” value is reported as -0.197. With TATTGTAA the “PBM E-score” value was -0.00777. For ATTGGCTG, the “PBM E-score” value was -0.24. For GGATTCAC, the “PBM E-score” value was -0.0907. In the case of AGGCCTCC, the “PBM E-score” value is reported as -0.19. GCTAACCA was tested, and the “PBM E-score” value was -0.148. AGCCCTAG was tested, and the “PBM E-score” value was -0.322. In the case of CTGACCAC, the “PBM E-score” value is reported as -0.084. GCCAAGAC was tested, and the “PBM E-score” value was -0.154. For ATTCGCCA, the “PBM E-score” value was -0.123. For CTTCGAGC, the “PBM E-score” value was -0.09. For AAAATCTC, the “PBM E-score” value was 0.0527. CCCAGGGG was tested, and the “PBM E-score” value was -0.328. For ACAAGACT, the “PBM E-score” value was -0.00931. GGTAGCCA was tested, and the “PBM E-score” value was 0.0405. AGAGCAGG was tested, and the “PBM E-score” value was -0.142. For TATCGAGA, the “PBM E-score” value was 0.0859. In the case of CCCGCTCC, the “PBM E-score” value is reported as -0.0825. CAGGCACG was tested, and the “PBM E-score” value was -0.189. In the case of AGATTGGC, the “PBM E-score” value is reported as 0.0146. AAGGCCGC was tested, and the “PBM E-score” value was -0.0622. With CGGGGTTA the “PBM E-score” value was 0.17. GGTTGCGA was tested, and the “PBM E-score” value was 0.0967. With AAGTTGCG the “PBM E-score” value was 0.0949. With AATGTTGC the “PBM E-score” value was 0.0599. For ATAGCAAT, the “PBM E-score” value was -0.00605. ACGTTCGA was tested, and the “PBM E-score” value was 0.0231. In the case of AAAATGTA, the “PBM E-score” value is reported as 0.0315. In the case of ATGACCAG, the “PBM E-score” value is reported as -0.182. With AGATGAAC the “PBM E-score” value was 0.0276. For CTTGATTA, the “PBM E-score” value was -0.25. With CTATATCA the “PBM E-score” value was -0.0561. GGTGGACA was tested, and the “PBM E-score” value was -0.215. For AAATTCGG, the “PBM E-score” value was -0.025. With ATAGAGTG the “PBM E-score” value was -0.00397. In the case of GCTAGAGA, the “PBM E-score” value is reported as 0.0839. For AAAATAGG, the “PBM E-score” value was -0.0506. With CCGGCGCC the “PBM E-score” value was -0.106. In the case of GAGATGAA, the “PBM E-score” value is reported as -0.0684. For GAAAGACC, the “PBM E-score” value was -0.204. For CGACTCTC, the “PBM E-score” value was 0.179. ACGGTTCG was tested, and the “PBM E-score” value was 0.159. For CTGTGTAA, the “PBM E-score” value was -0.0366. TAGGGAAA was tested, and the “PBM E-score” value was -0.105. AATCATAT was tested, and the “PBM E-score” value was 0.00493. For CAGGATAC, the “PBM E-score” value was 0.035. In the case of CTTTCATA, the “PBM E-score” value is reported as 0.0603. In the case of AAGCCTCC, the “PBM E-score” value is reported as -0.2. In the case of GTGACAAC, the “PBM E-score” value is reported as -0.102. With CGCACGCG the “PBM E-score” value was 0.0471. With GAATGGGC the “PBM E-score” value was -0.0327. In the case of ACTAAAGG, the “PBM E-score” value is reported as -0.0401. For ATTCACAA, the “PBM E-score” value was -0.108. With CCCCTTCC the “PBM E-score” value was -0.25. With ATCGGTGG the “PBM E-score” value was -0.0649. ATCCGATG was tested, and the “PBM E-score” value was 0.0967. With CAGAGCAC the “PBM E-score” value was -0.0415. In the case of GGGGGCAC, the “PBM E-score” value is reported as -0.231. GATCTGGC was tested, and the “PBM E-score” value was -0.0503. With CGAAGGCC the “PBM E-score” value was 0.127. With AGAGCGGG the “PBM E-score” value was -0.274. For AGGGCCCA, the “PBM E-score” value was -0.117. For ACCCATCA, the “PBM E-score” value was -0.0201. AACTGGCT was tested, and the “PBM E-score” value was -0.196. In the case of GTCCCCTA, the “PBM E-score” value is reported as -0.281. With CATACGAA the “PBM E-score” value was 0.466. CTTCCCGC was tested, and the “PBM E-score” value was -0.0738. AGTGAACT was tested, and the “PBM E-score” value was -0.117. In the case of AATAAATC, the “PBM E-score” value is reported as -0.0576. With CCTAATCC the “PBM E-score” value was -0.161. In the case of AAAAGGCG, the “PBM E-score” value is reported as 0.111. With GATAAGGC the “PBM E-score” value was 0.00098. GAGTTGAA was tested, and the “PBM E-score” value was 0.0719. For CTTCATTC, the “PBM E-score” value was -0.06. For ATATCTGG, the “PBM E-score” value was -0.206. In the case of ACTACGAC, the “PBM E-score” value is reported as 0.272. CTCCGCAG was tested, and the “PBM E-score” value was -0.128. In the case of ATACGTGG, the “PBM E-score” value is reported as 0.264. CGTAGAAG was tested, and the “PBM E-score” value was 0.268. For GGTTTGAC, the “PBM E-score” value was 0.0773. TAAATCCA was tested, and the “PBM E-score” value was 0.092.
